Results on 7 molecules are retold here after PMC4207660, “Identification and Characterization of Hundreds of Potent and Selective Inhibitors of Trypanosoma brucei Growth from a Kinase-Targeted Library Screening Campaign” (PLoS Neglected Tropical Diseases, 2014).

≈ marks a conversion by molar mass, not a printed value. Where two headings read alike, the source gives them in different places.

The subject of series [1] is T. brucei brucei parasites (Lister 427 strain). The series is described as follows: Dose response growth inhibition assay (resazurin, 72 h). Format: cell-based. The conditions noted are these: Trypanosoma brucei; T. b. brucei growth inhibition; read-out: Tbb pEC50 (converted). How it is done:
Greiner sterile black clear bottom 384-well assay plates were pre-dispensing with 200 nL of compound in each well, from master plates at 1 mM (100% DMSO) containing selection from the GSK compound collection. Controls of 0% response (control 1, 200 nL of 100%DMSO) and 100% response (control 2, 200 nL of 1 mM pentamidine) were included in each assay plate in columns 6 and 18, respectively. Plates containing 200 nL of 100% DMSO were included randomly in the assay, to assess quality through all process. […] After this period, 10 µL of 200 µM resazurin solution in prewarmed HMI-9 were added to each well, and plates were allowed to incubate 2 hours more prior fluorescence reading in a Wallac EnVision Multilabel Plate Reader (Perkin-Elmer). Raw fluorescent data from the Envision plate reader were uploaded into GSK HTS database (ActivityBase). Activity of each well was normalized as a percentage of inhibition per-plate basis using the following equation: [drawing 1]
For dose-response experiments, serial compound dilutions of selected hits from the primary campaign were plotted against compound concentration. Dose response master plates were prepared by 3-fold dilutions (starting with 10 mM DMSO stock solutions), providing 11 concentrations. From these master plates, 200 nL per well was stamped in final assay plates, including the same controls describe in the primary single shot assay. Compounds were dispensed as serial dilution curve format, with 11 points at 3-fold dilution and 40 µM as starting top concentration (n = 2). Growth inhibition assay was performed as described in previous assay.
A 4-parameter equation describing a sigmoidal dose-response curve was then fitted with an adjustable baseline using ActivityBase XE Runner software. Fitting of dose-response curves and EC50 determination were normalized as percentage of inhibition based on controls. The curve-fit model was based on a 4-parameter equation: [drawing 2]
Trypanosome cell culture. […]

The target in series [2] is T1, Human Serum Albumin (HSA) (Homo sapiens, UniProt P02768).
T1 construct: purchased Chiral Technologies, France
Briefly: Protein binding assay (HPLC stationary phase), HSA. Format: in vitro ADME. As to conditions: Measured. How it is done: Chemically bonded Human Serum Albumin (HSA) and Alpha-1-acidglycoprotein HPLC stationary phases (Chiral Technologies, France) were used for measuring compounds' binding to plasma proteins, applying linear gradient elution up to 30% iso-propanol. The run time was 6 min, including the re-equilibration of the stationary phases with the 50 mM pH7.4 ammonium acetate buffer. The obtained gradient retention times were standardised using a calibration set of mixtures as described in the references. The average standard error of the assay depends on the binding strength and kinetics of the compounds.

For series [3], the target named is Cytochrome P450 (CYP450) (Homo sapiens, UniProt P08684). The series is described as follows: Cytochrome P450 inhibition profile. Format: in vitro ADME. The conditions noted are these: Measured. How it is done:
The P450 inhibition profile of the inhibitors was determined as previously described.

Series [4] can be described thus: CLND kinetic solubility assay. Format: physicochemical. As to conditions: phosphate buffered saline, pH 7.4, aqueous buffer, kinetic from dmso stock; Measured; read-out: Aq Sol. How it is done: 5 µL of 10 mM DMSO stock solution was diluted to 100 µL with pH 7.4 phosphate buffered saline, equilibrated for 1 hour at room temperature, filtered through Millipore MultiscreenHTS-PCF filter plates (MSSL BPC). The filtrate was quantified by suitably calibrated flow injection Chemi-Luminescent Nitrogen Detection.

With `CC(C)Nc1nc(Nc2ccc(S(N)(=O)=O)cc2)ncc1Cl` [NEU-0001173], the EC50 in series [1] was 79.4 nM. The molecule also displayed an HSA % binding in series [2] of 92.8%. For the same molecule, the IC50 in series [3] (CYP3A4, VG substrate, read-out: CYP3A4VG pXC50 (converted)) is 12600 nM; in series [3] (CYP3A4, VR substrate, read-out: CYP3A4VR pXC50 (converted)) it was 25100 nM.

On to `O=C(NC(CO)c1ccccc1)c1coc(-c2c[nH]c3nccc(F)c23)c1` (stereo not shown) [NEU-0001174], for which, in series [1], the EC50 is 31.6 nM. The solubility kinetic at 1 h in series [4] was determined as 170 µM (≈ 62.1 µg/mL). This molecule also registered an HSA % binding in series [2] of 95.5%.

With `CC(C)=Cc1cccc2c1C(=NNc1ccc(S(N)(=O)=O)cc1)C(=O)N2` [NEU-0001183], the solubility kinetic at 1 h in series [4] was determined as 3 µM (≈ 1.11 µg/mL).

`CC(C)CC(=O)c1ccc2c(c1)/C(=C/c1cc(Cl)c(O)c(Cl)c1)C(=O)N2` [NEU-0001186]: the EC50 in series [1] was 631 nM. Further, in series [4], the solubility kinetic at 1 h stood at 334 µM (≈ 130 µg/mL).

With `CCCNc1nc(Nc2cnn(C)c2)c2c(=O)[nH]ccc2n1` [NEU-0001187], the HSA % binding in series [2] came to 85.65%.

Turning to `COCc1ccc(-c2cc(C(N)=O)c3[nH]cc(C4CCS(=O)(=O)CC4)c3c2)o1` [NEU-0001192], the solubility kinetic at 1 h in series [4] was 59 µM (≈ 23.7 µg/mL).

`O=C(Nc1ccc(-c2ccnc3[nH]ccc23)s1)C1(Cc2ccccc2)CCCNC1` (stereo not shown) [NEU-0001240] gave an HSA % binding in series [2] of 95.5%.
